Test results taken from the supplement of paper PMC10126150.
Sequences with one replicate were seen in a single cluster, so their values are uncertain.

Tested on: ATP
Assay: switch fluorescence ratio, 500 uM ATP over buffer (Cy3 cluster intensity, sum of 5 cycles each) (fold (ratio)); higher = stronger signal-on switching upon ATP binding; sequences stand for … in TCGTCGGCAGCGTCAGATGTGTATAAGAGACAGTTTTTTTTTTTTTTTTTTTTTTTTT…TC
Conditions: aptamer strand: ATP DNA aptamer (quencher-CACCTGGGGGAGTATTGCGGAGGAAGG + anchor), 100 nM annealed; ATP concentration: 500 uM; one replicate
In short: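 Imaging in selection buffer was followed by imaging after 15 min with 500 uM ATP at 22 °C, for Cy3-labelled switching-strand clusters annealed to 100 nM quencher-labelled ATP aptamer on a modified Illumina MiSeq flow-cell. Five of these buffer/ATP cycles ran, separated by NaOH stripping and re-annealing. The fluorescence ratio per cluster is summed target-cycle over summed buffer-cycle Cy3 intensity, averaged per switch-domain sequence; clusters outside 100-1000 RFU were removed.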
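Also: ATP exposure 15 min at 22 °C before imaging.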

Q: Which switch fluorescence ratio does the source give for GGCTGTTTAC here?
A: 1.02

Q: How did the switch fluorescence ratio turn out when GGCTTAACAG was run?
A: 1.01

Q: How did the switch fluorescence ratio turn out when GGCTTAATTA was run?
A: 1

Q: For GGCTTAGGC, which switch fluorescence ratio is on record?
A: 0.95

Q: For GGCTTATGAC, which switch fluorescence ratio is on record?
A: 1.01

Q: With GGCTTCCTT as the sequence, how does the switch fluorescence ratio read?
A: 1.17

Q: How did the switch fluorescence ratio turn out when GGCTTCGAAC was run?
A: 1.03

Q: How did the switch fluorescence ratio turn out when GGCTTCTCGT was run?
A: 1.02

Q: For GGCTTCTGTC, which switch fluorescence ratio is on record?
A: 1.01

Q: How did the switch fluorescence ratio turn out when GGCTTGTGTC was run?
A: 0.957

Q: GGCTTTACAC was tested. Which switch fluorescence ratio did it give?
A: 1.03

Q: How did the switch fluorescence ratio turn out when GGCTTTGATT was run?
A: 0.992

Q: Which switch fluorescence ratio does the source give for GGCTTTGGTG here?
A: 0.968

Q: GGCTTTGTAA was tested. Which switch fluorescence ratio did it give?
A: 1

Q: For GGCTTTTTCG, which switch fluorescence ratio is on record?
A: 1.07

Q: Which switch fluorescence ratio does the source give for GGGAAAAAAA here?
A: 0.95

Q: For GGGAAAATCG, which switch fluorescence ratio is on record?
A: 0.969

Q: How did the switch fluorescence ratio turn out when GGGAAACCGC was run?
A: 1.34

Q: Which switch fluorescence ratio does the source give for GGGAACCAGA here?
A: 1.04

Q: For GGGAACGCAT, which switch fluorescence ratio is on record?
A: 1.18

Q: Which switch fluorescence ratio does the source give for GGGAACGGTT here?
A: 0.923

Q: How did the switch fluorescence ratio turn out when GGGAAGAATT was run?
A: 0.958

Q: How did the switch fluorescence ratio turn out when GGGAAGAGCC was run?
A: 1.31

Q: With GGGAAGAGTC as the sequence, how does the switch fluorescence ratio read?
A: 0.986

Q: GGGAAGCGGC was tested. Which switch fluorescence ratio did it give?
A: 0.988

Q: With GGGAAGCGGG as the sequence, how does the switch fluorescence ratio read?
A: 1.01

Q: For GGGAAGGATA, which switch fluorescence ratio is on record?
A: 0.991

Q: Which switch fluorescence ratio does the source give for GGGAAGGGTC here?
A: 1.02

Q: GGGAAGTGAT was tested. Which switch fluorescence ratio did it give?
A: 1.02

Q: How did the switch fluorescence ratio turn out when GGGAATGCCA was run?
A: 0.981

Q: GGGACAAAAG was tested. Which switch fluorescence ratio did it give?
A: 0.994

Q: GGGACAAATC was tested. Which switch fluorescence ratio did it give?
A: 0.996

Q: For GGGACGGAGT, which switch fluorescence ratio is on record?
A: 1.14

Q: GGGACTAAGG was tested. Which switch fluorescence ratio did it give?
A: 1.03

Q: GGGACTCAAA was tested. Which switch fluorescence ratio did it give?
A: 0.961

Q: For GGGAGAAGGC, which switch fluorescence ratio is on record?
A: 0.975

Q: How did the switch fluorescence ratio turn out when GGGAGACAAT was run?
A: 0.979

Q: For GGGAGACCTA, which switch fluorescence ratio is on record?
A: 0.95

Q: GGGAGAGAAG was tested. Which switch fluorescence ratio did it give?
A: 0.964

Q: How did the switch fluorescence ratio turn out when GGGAGATCTA was run?
A: 0.992

Q: With GGGAGCGACG as the sequence, how does the switch fluorescence ratio read?
A: 0.971

Q: Which switch fluorescence ratio does the source give for GGGAGCGG here?
A: 0.963

Q: With GGGAGGCATT as the sequence, how does the switch fluorescence ratio read?
A: 0.939

Q: How did the switch fluorescence ratio turn out when GGGAGGGGTC was run?
A: 1.03

Q: Which switch fluorescence ratio does the source give for GGGAGGTCGA here?
A: 1.02

Q: With GGGAGTACCC as the sequence, how does the switch fluorescence ratio read?
A: 1.01

Q: With GGGAGTAGCT as the sequence, how does the switch fluorescence ratio read?
A: 1.01

Q: GGGAGTGCTG was tested. Which switch fluorescence ratio did it give?
A: 1.1

Q: How did the switch fluorescence ratio turn out when GGGATACGTT was run?
A: 0.973

Q: For GGGATCACAA, which switch fluorescence ratio is on record?
A: 1.01

Q: For GGGATCATAT, which switch fluorescence ratio is on record?
A: 1.04

Q: How did the switch fluorescence ratio turn out when GGGATGCTAG was run?
A: 0.939

Q: With GGGATGGTAT as the sequence, how does the switch fluorescence ratio read?
A: 1.01

Q: GGGATGTGTC was tested. Which switch fluorescence ratio did it give?
A: 1.01

Q: Which switch fluorescence ratio does the source give for GGGCAAAAGA here?
A: 1.12

Q: For GGGCAACCTA, which switch fluorescence ratio is on record?
A: 1.02

Q: How did the switch fluorescence ratio turn out when GGGCAAGCTA was run?
A: 0.961

Q: How did the switch fluorescence ratio turn out when GGGCAAGGA was run?
A: 0.99

Q: For GGGCAATC, which switch fluorescence ratio is on record?
A: 2.88

Q: For GGGCACTTTT, which switch fluorescence ratio is on record?
A: 0.983

Q: With GGGCAGAGTG as the sequence, how does the switch fluorescence ratio read?
A: 1.03

Q: How did the switch fluorescence ratio turn out when GGGCAGCAAC was run?
A: 1.13

Q: Which switch fluorescence ratio does the source give for GGGCAGGCTA here?
A: 0.994

Q: For GGGCATGGAT, which switch fluorescence ratio is on record?
A: 0.976

Q: For GGGCCAAGGC, which switch fluorescence ratio is on record?
A: 0.997

Q: GGGCCAGCG was tested. Which switch fluorescence ratio did it give?
A: 1.05

Q: Which switch fluorescence ratio does the source give for GGGCCATGGG here?
A: 1.09

Q: For GGGCCCAGGG, which switch fluorescence ratio is on record?
A: 1.13

Q: GGGCCCCCGT was tested. Which switch fluorescence ratio did it give?
A: 0.96

Q: With GGGCCGGAAG as the sequence, how does the switch fluorescence ratio read?
A: 1.02

Q: Which switch fluorescence ratio does the source give for GGGCCTATTG here?
A: 0.986

Q: With GGGCGAAATC as the sequence, how does the switch fluorescence ratio read?
A: 1.84

Q: GGGCGACCGG was tested. Which switch fluorescence ratio did it give?
A: 0.967

Q: GGGCGACGTC was tested. Which switch fluorescence ratio did it give?
A: 1.02

Q: With GGGCGAGTGT as the sequence, how does the switch fluorescence ratio read?
A: 0.958

Q: With GGGCGCACGA as the sequence, how does the switch fluorescence ratio read?
A: 1.02

Q: For GGGCGGCATG, which switch fluorescence ratio is on record?
A: 1.01

Q: How did the switch fluorescence ratio turn out when GGGCGGCGCG was run?
A: 0.995

Q: With GGGCGTCACA as the sequence, how does the switch fluorescence ratio read?
A: 0.977

Q: How did the switch fluorescence ratio turn out when GGGCGTCTAC was run?
A: 1.02

Q: Which switch fluorescence ratio does the source give for GGGCGTGCTG here?
A: 0.947

Q: For GGGCGTTGAG, which switch fluorescence ratio is on record?
A: 1.01

Q: GGGCTACGGT was tested. Which switch fluorescence ratio did it give?
A: 0.979

Q: With GGGCTCTGAT as the sequence, how does the switch fluorescence ratio read?
A: 0.979

Q: GGGCTGAATT was tested. Which switch fluorescence ratio did it give?
A: 1
